Assay results: PMC12136788
Some of the results follow.

T1: UNK ZnF1-3 (human, UniProt Q9C0B0 31-174)
T1 sequence: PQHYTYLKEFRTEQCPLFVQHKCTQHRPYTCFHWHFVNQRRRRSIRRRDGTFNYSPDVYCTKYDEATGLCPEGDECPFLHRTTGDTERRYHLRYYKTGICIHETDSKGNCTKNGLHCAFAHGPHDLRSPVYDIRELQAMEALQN

B1: chr4:34758383:34758384:-_ENSMUSG00000039967_ENSMUST00000047950|mus_hu|FALSE|FALSE (ssRNA)
RNA: GGGAGUUCUACAGUCCGACGAUCCUCAUCAUCUGAACCAUCAUUGUCAUUAAACACUAUAAAAUCUGUUGAAUAGAGACUAUUCUUUUUUAUAGGUCGCUGCUCCUGUUUAGCCACAGUAUUAGUCUUCUGAUUUUCAUUGGUCAACAGAGGAUUGAGCAUCA
B2: 72619223_72628188_842_CDS_ENSG00000166224_ENST00000373202|human|control|control (ssRNA)
RNA: GGGAGUUCUACAGUCCGACGAUCUUCUGGAGUUUUGAUCCCCUUCUCAAAGGCCAGAUCCCGAUAUGCUUUGCAGGCCAUCAGUAUGCUUUCUGUUCCCCCAGAAGUCACACAUCCACACGAAUCUGGUCCCCCAUUGAACAGCAACAGAGGAUUGAGCAUCA
B3: chr5:145543945:145543946:-_ENSG00000133706_ENST00000545646|hu_hu|hu_hu_hu_mus_True|1_78 (ssRNA)
RNA: GGGAGUUCUACAGUCCGACGAUCCUGAACGGCCAGUGGUGGGAAAUAAUCAAGCCAAUGUUCUGCUUCAGAAAACUUCACUAUGUCGUCAUCAGAGAGCCCAAGGGAUUUCAUAAUGUCCCACUGGUACUUAGAAGAUCCAGCCAACAGAGGAUUGAGCAUCA
B4: chr12:48362563:48362564:+_ENSG00000134291_ENST00000256686|hu_hu|hu_hu_hu_mus_False|8_88 (ssRNA)
RNA: GGGAGUUCUACAGUCCGACGAUCUCCGUCAAGCCCUUCGAUAGACCCAUAGACUCUAAACUGUAAUCACUUUGUAUGGGGAAGGAAAAGAAACGCCAAAAACUUUCCAAAAAGCGGGGGUGGGGUGUCCCAGGCCUGGGAGGUCAACAGAGGAUUGAGCAUCA
B5: chr3:179287964:179287965:+_ENSG00000136518_ENST00000429709|hu_hu|hu_hu_hu_mus_True|8_18 (ssRNA)
RNA: GGGAGUUCUACAGUCCGACGAUCCUUGAGUGGUGAGAUGGCCUCCAUGUUCUCCCUGGGCACGCGGAGGGCAUUGGUGUCUAUGUAGUAGGUGGGCCCGCCCUGCUUGCCUUUGUCGCCAUCUAUUUCCAUUAAUGUACUUCCCAACAGAGGAUUGAGCAUCA
B6: chr4:57314706:57314707:+_ENSG00000128050_ENST00000264221|hu_mus|hu_hu_hu_mus_True|18_38 (ssRNA)
RNA: GGGAGUUCUACAGUCCGACGAUCCAGAAUUUCAAAAAUAGCUUGUGUGGCAUGACUCAUGAUGUCCACUUCAGUCUGCCCUAUAACAAGGCCAGCAAAGCAAAAUUUUGCAGCAAUCAGCUGUUCCUCAGACCACUGUGGAUCCAACAGAGGAUUGAGCAUCA
B7: chr1:184023491:184023492:+_ENSG00000198860_ENST00000361641|hu_hu|motif|central (ssRNA)
RNA: GGGAGUUCUACAGUCCGACGAUCCAUGAGGUCCAGGUAAACCAAGAACGCUACAUAAACUUGGGUGGCAUCUCCGGUAUCGGAUUCCAUCAUUUCUAGAUACUUAGGGUGAGUGCCCAUCCAGGCGUCCUCAGGGGCCCACGACAACAGAGGAUUGAGCAUCA
B8: chr13:36129161:36129162:+_ENSG00000172915_ENST00000537702|hu_hu|FALSE|FALSE (ssRNA)
RNA: GGGAGUUCUACAGUCCGACGAUCCAAAUAUUCGAAGUUUGAAAUUUCCCUUCUUUGCCAGCGCUGAGUCAUAUUGGAAGAUUUAUAAAGCUGUCGAGGAGUGGCCAAUGAUAUCCUCCUGGCUUGUGGCAGACCAUAGCUGGUCAACAGAGGAUUGAGCAUCA
B9: chr17:27085315:27085316:-_ENSG00000173065_ENST00000581407|hu_mus|FALSE|FALSE (ssRNA)
RNA: GGGAGUUCUACAGUCCGACGAUCACUAAACCUAGAAGGGCAAUGUGUGUUGCCUGAGGAGAGCGUCCCGGCUCCCUAUCUAUACCCUGGGUGCUGAAUAUGAAGACUUCGACUAUCUGUGGGAUCAGGGGCUCGGGUGCCAGGCAACAGAGGAUUGAGCAUCA
B10: chr8:82586177:82586178:-_ENSG00000133731_ENST00000256108|hu_hu|FALSE|FALSE (ssRNA)
RNA: GGGAGUUCUACAGUCCGACGAUCUCCUUUUCUGGCAGUGUACAUCUUGCCUUCCACACAACUGUACACAACUCCAAAUUCUAUCUUUUUAUUUACAGCAAAGCCAAUUGAAACAGCUACAAAAGGAAAUCUAUGUACAAAGUUCAACAGAGGAUUGAGCAUCA
B11: chr7:75932113:75932114:+_ENSG00000106211_ENST00000248553|hu_hu|hu_hu_hu_mus_False|28_48 (ssRNA)
RNA: GGGAGUUCUACAGUCCGACGAUCCUGCGACCACUCAUCGGGCAACCGGGGCACCCCGAAAGCUUGAUCGAAGAGGCGGCUGUGUGCGUACCAGUCGUCCCGGAAUGCCCAGCUGGGCGGGCUCCGCAGCAGCGAGAAGGGCACCAACAGAGGAUUGAGCAUCA
B12: chr9:74900086:74900087:+_ENSMUSG00000007656_ENSMUST00000169492|mus_hu|motif|central (ssRNA)
RNA: GGGAGUUCUACAGUCCGACGAUCUUGUCCCAGAUGAGGAUAUCUUGCUUUUAAUUUUGCUUCUUCUGCUUUCUCUGGACGGGUCACUUUAUCUUCCAUUUCCUUCUGCUCCUCCGCGGAGGCUGCCUCGGGGACUUCCGCAGACAACAGAGGAUUGAGCAUCA
B13: chr16:94664741:94664742:+_ENSMUSG00000040785_ENSMUST00000117648|mus_hu|mus_mus_mus_hu_False|1_1 (ssRNA)
RNA: GGGAGUUCUACAGUCCGACGAUCUGGUACUGAUCUUGGUAGCUGAUAUUCAGGAGAAAGGCUGGCCAAGGGUGUAUAUAUGCUGGUGUACUGGGGCAAACCUGGUAACACGUUUAUGUAUGCUGGCGGUGUCUGGGUGCCAAACAACAGAGGAUUGAGCAUCA
B14: chr6:41757443:41757444:+_ENSG00000214736_ENST00000398881|hu_mus|hu_hu_hu_mus_False|48_58 (ssRNA)
RNA: GGGAGUUCUACAGUCCGACGAUCGAACCGUGCAGAGGCAACAUCUCAGCCGACACUGGGGGAUGGGGGGGCAGUGGGAAACUAGGCAGGGAAGGGGAGGGAGUCAACUUCAGCUGCCACUCAGGUAGGAUCUUGUGGUCACAGCAACAGAGGAUUGAGCAUCA
B15: chr6:31368937:31368938:+_ENSMUSG00000025609_ENSMUST00000026699|mus_mus|motif|central (ssRNA)
RNA: GGGAGUUCUACAGUCCGACGAUCGGGAGGAUAGUUGCUCUCUGAAGACCAUCUGGAAGACUGAUCAUUUGGUUUAUCCACGGAAAUGUUCUCGGGAAGGUAGGUGGAGGAGAAGGAGCUCCACUUAUGCAGCGCGUAGGGCAGCAACAGAGGAUUGAGCAUCA
B16: chr17:31789506:31789507:-_ENSMUSG00000061613_ENSMUST00000166526|mus_mus|FALSE|FALSE (ssRNA)
RNA: GGGAGUUCUACAGUCCGACGAUCAGACUGGGAAGAGUUUUGAGGGUUACGGUAAAUGUUCAAGAGGGCAAUGGUCUGGCUAAAGGUUGGUUUAUUGUGCAACCGAGAACAUCUGUCUCCAUGACGACAUGCUCCGAUUUUGAACAACAGAGGAUUGAGCAUCA
B17: 135565860_135565980_4621_3pUTR_ENSG00000125484_ENST00000372146|human|control|control (ssRNA)
RNA: GGGAGUUCUACAGUCCGACGAUCGCAAUUUGAAUAGGAAACAGAAAACAUUUCUGAGCAGACUGUUUAGAAGUGCCUCCAAGGGCUGGUCUGCACUACCUAUCAAUGCGGGGUGGGGGUGGGGAGGUUGCCGUCAUGGUAUCACAACAGAGGAUUGAGCAUCA
B18: chr11:10819154:10819155:-_ENSG00000110321_ENST00000525681|hu_mus|motif|central (ssRNA)
RNA: GGGAGUUCUACAGUCCGACGAUCCUUAGGAUGUAAUUAUUGCAUGCUGCUAAUAUUCUAUCUAAACAUUAAGGAUACUCCGGAAGUAUUUGAUGGUAGACUAUGAUUAAGACAUCACACUACAAAAACCUUAUGCAGAAGGAACAACAGAGGAUUGAGCAUCA
B19: chr22:32879901:32879902:+_ENSG00000100225_ENST00000397426|hu_mus|hu_hu_hu_mus_False|78_98 (ssRNA)
RNA: GGGAGUUCUACAGUCCGACGAUCCUCUUCCAUACUCGCAUUAUCUUGAAUUGACUCAGCUUCAAAAUUUUGACUAGGCCCUUCCAUACUGUCAUCAGUCCAGGCAUCAAAUGGGGUGGCCUGUCCUUGGGAUGAAUCAGUCCCCAACAGAGGAUUGAGCAUCA
B20: chr18:6437031:6437032:-_ENSMUSG00000024240_ENSMUST00000028100|mus_hu|motif|central (ssRNA)
RNA: GGGAGUUCUACAGUCCGACGAUCGCAGUACUGUACAGAUAAUUGCUGUAUUCUUAAUUUACAGAUGUUGAUUUUUUUCCGGUUAACAGUAAGAAAAGAAAAAUUGAAGCAUGAGAGAUGAGCAUUGCUGUCAAGUCCCCACAGCAACAGAGGAUUGAGCAUCA
B21: chr5:21408736:21408737:-_ENSMUSG00000042453_ENSMUST00000161356|mus_hu|mus_mus_mus_hu_False|58_78 (ssRNA)
RNA: GGGAGUUCUACAGUCCGACGAUCGUUGACAGAGUUGUAGAUGGUGGCUUCAUGGAACUGGAACGGGGAGCAGCCAAUGCUAUUGGAAGAGGAAGGAAGGCACUGGGUCUGUACGAGCUGCCAGGAAUCCGAUCUUGCAUCCUUCAACAGAGGAUUGAGCAUCA
B22: chr12:39763582:39763583:-_ENSG00000139116_ENST00000544797|hu_mus|hu_hu_hu_mus_False|58_68 (ssRNA)
RNA: GGGAGUUCUACAGUCCGACGAUCCUCUAGGAACUGGGCAUUCACUUUGAAUUCAGGAGGGGGCAGCCCAUUUUUAAUUGCUAUGUGCUUUUUCUCAUCAAUACUCUUGAACAGGUGUCUAACAGCACGAGAGAUGAUGCCCUGCAACAGAGGAUUGAGCAUCA

What follows are binders tested against T1, UNK ZnF1-3 (assay: nsRBNS (natural sequence RNA bind-n-seq); RBNS binding buffer (assumed for nsRBNS): 25 mM Tris pH 7.5, 150 mM KCl, 3 mM MgCl2, 0.01% Triton X-100, 500 ug/ml BSA, 20 U/ml SUPERase-In, 4 C; UNK is unkempt and MSI1 is Musashi-1; names of the RNAs are library labels; protein concentration not given here; high values mean tight binding).

Question: With B1 as the binder, how does the binding signal read?
Answer: 0.727 enrichment R

Question: With B2 as the binder, how does the binding signal read?
Answer: 0.527 enrichment R

Question: With B3 as the binder, how does the binding signal read?
Answer: 1.49 enrichment R

Question: Which binding signal does the source give for B4 here?
Answer: 2 enrichment R

Question: B5 was tested. Which binding signal did it give?
Answer: 0.607 enrichment R

Question: Which binding signal does the source give for B6 here?
Answer: 1 enrichment R

Question: How did the binding signal turn out when B7 was run?
Answer: 1.04 enrichment R

Question: For B8, which binding signal is on record?
Answer: 1.07 enrichment R

Question: How did the binding signal turn out when B9 was run?
Answer: 1.05 enrichment R

Question: B10 was tested. Which binding signal did it give?
Answer: 1.12 enrichment R

Question: For B11, which binding signal is on record?
Answer: 0.629 enrichment R

Question: With B12 as the binder, how does the binding signal read?
Answer: 0.692 enrichment R

Question: Which binding signal does the source give for B13 here?
Answer: 1.12 enrichment R

Question: B14 was tested. Which binding signal did it give?
Answer: 2.96 enrichment R

Question: How did the binding signal turn out when B15 was run?
Answer: 1.85 enrichment R

Question: Which binding signal does the source give for B16 here?
Answer: 1.15 enrichment R

Question: For B17, which binding signal is on record?
Answer: 1.39 enrichment R

Question: B18 was tested. Which binding signal did it give?
Answer: 1.09 enrichment R

Question: With B19 as the binder, how does the binding signal read?
Answer: 1.18 enrichment R

Question: How did the binding signal turn out when B20 was run?
Answer: 2.13 enrichment R

Question: With B21 as the binder, how does the binding signal read?
Answer: 1.55 enrichment R

Question: Which binding signal does the source give for B22 here?
Answer: 1.58 enrichment R
